The record followed here is the supplement of paper PMC4723716.

Values joined by “and” are separate entries in the source; they are usually repeats but may differ in a detail not shown here. Equal values may be shown once. ± gives the uncertainty stated by the source. Whole data set: some 9,900 compounds, median “viability index relative to DMSO control” near 1, cut for the lowest 2% near 0.85. This is one part of the list.

For the assay, the system named is Plasmodium falciparum NF54 stage V gametocytes. The assay can be described thus: viability index relative to DMSO control (fraction); higher = less gametocyte killing. As to conditions: 2.5 µM, library set: Broad Institute DOS, incubation time: 72 h. In short, it runs like this: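 Gametocytes (P. falciparum NF54, stage V) were treated with compound at 2.5 µM for 72 hr at 37°C in low oxygen, in serum-free medium at 0.75% gametocytemia and 1.25% hematocrit. Counts of 20–70 µm2 red particles, taken from one field per well after MitoTracker Red CMXRos with saponin, were divided by the plate mean of solvent-only wells. This ratio is the viability index.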
On to `O=C(C[C@@H]1CC[C@@H]2NC[C@@H](O)COC[C@H]2O1)NCc1ccc2c(c1)OCO2`, for which the viability index turned out to be 1.02 ± 0.052.
In the case of `C[C@@H]1CN([C@H](C)CO)C(=O)c2cc(NC(=O)C3CC3)ccc2O[C@H]1CN(C)S(=O)(=O)c1ccccc1` it was 0.9611 ± 0.002; in that of `Cc1ccccc1-c1ccccc1[C@H]1[C@@H](CO)N(C(=O)c2ccc(F)cc2)[C@H]1C#N`, 1.05 ± 0.062; in that of `Cc1ccc(S(=O)(=O)N2C[C@@H]3[C@H](c4ccccc42)[C@@H](CO)N3Cc2cccnc2)cc1`, 1.04 ± 0.049.
In the case of `O=C(NCCc1ccncc1)[C@H]1[C@H](CO)[C@H]2Cn3c(cccc3=O)[C@@H]1N2Cc1ccccc1F` it was 1.04 ± 0.027.
In turn, `C[C@@H]1CN([C@H](C)CO)C(=O)c2cc(C3=CCCC3)cnc2O[C@H]1CN(C)C(=O)Nc1ccc(C(F)(F)F)cc1` yielded a viability index of 1.04 ± 0.015.
The compound `COc1cccc(S(=O)(=O)N(C)C[C@@H]2OCc3ccccc3-c3c(n(C)c4ccccc34)C(=O)N([C@@H](C)CO)C[C@@H]2C)c1` registered a viability index of 0.964 ± 0.046.
In the case of `COc1ccc(C[C@H]2CCc3cnnn3COCCNC2=O)cc1` it was 1.101 ± 0.0095; in that of `C[C@H]1CN([C@@H](C)CO)C(=O)c2c(c3ccccc3n2C)-c2ccccc2CO[C@H]1CN(C)C(=O)Nc1ccccc1C(F)(F)F`, 0.914 ± 0.034.
The result for `CN(C)C(=O)c1ccc(-c2ccc3c(c2)[C@@H]2[C@@H](CCN2C(=O)C2CCCC2)[C@@H](CO)N3C)cc1` reads 1.08 ± 0.12; that for `C/C=C/c1ccc([C@@H]2[C@H]3CN(C(=O)c4ccncc4)CC(=O)N3[C@H]2CO)cc1`, 0.92 ± 0.062; that for `CCS(=O)(=O)N1CC[C@@]2(CC1)CN([C@@H](CO)c1c2c2ccc(OC)cc2n1C)C(=O)Nc1c(C)noc1C`, 0.999 ± 0.033.
In the case of `CO[C@@H]1CN(C)C(=O)c2ccc(NC(=O)C3CCC3)cc2OC[C@@H](C)N(Cc2ccccn2)C[C@@H]1C` it was 1.088 ± 0.008; in that of `COc1ccc(CN(C)C[C@@H]2OCCCC[C@@H](C)Oc3ccc(NC(=O)C4CCCCC4)cc3C(=O)N([C@H](C)CO)C[C@@H]2C)cc1`, 1.06 ± 0.021.
Regarding `CC(=O)N1Cc2cc(C(=O)NCC(F)(F)F)nc(-c3cccc(-c4cc5ccccc5o4)c3)c2[C@H]1CCO`, the viability index worked out at 1.04 ± 0.057.
In the case of `O=C(C[C@@H]1CC[C@@H]2[C@H](COC[C@@H](O)CN2C(=O)Nc2ccccc2)O1)NCc1ccccc1F`, the viability index came to 1.12 ± 0.035.
In the case of `CO[C@@H]1CN(C)C(=O)c2ccc(NC(C)=O)cc2OC[C@H](C)N(C(=O)c2cnccn2)C[C@H]1C` it was 0.961 ± 0.073.
In the case of `CC(C)c1cn(CC[C@H]2CC[C@H](NS(=O)(=O)c3ccc(F)cc3)[C@H](CO)O2)nn1` it was 1.05 ± 0.13; in that of `CN(C)CC(=O)N1CCCCN2[C@@H](CO)[C@@H](c3ccc(-c4cncnc4)cc3)[C@@H]2C1`, 1.01 ± 0.056; in that of `Cc1noc(C)c1S(=O)(=O)N(C)C[C@H]1Oc2c(NC(=O)c3ccc(-c4nccs4)cc3)cccc2C(=O)N([C@H](C)CO)C[C@H]1C`, 0.946 ± 0.06.
In the case of `N#Cc1cccc(-c2ccc3c(c2)[C@H]2[C@H](CCN2S(=O)(=O)c2ccc(F)cc2)[C@@H](CO)N3)c1` it was 0.949 ± 0.023.
With `COc1cccc(S(=O)(=O)N2C[C@H](O)COC[C@@H]3O[C@@H](CC(=O)N4CCN(c5ccccc5)CC4)CC[C@H]32)c1`, the viability index came to 1.038 ± 0.0048.
In the case of `CCCNC(=O)N[C@H]1C=C[C@H](CC(=O)N2CCN(C)CC2)O[C@@H]1CO` it was 1.02 ± 0.022; in that of `CCCNC(=O)N1C[C@]2(CCN(CC2)C(=O)C2CCOCC2)c2c([nH]c3cc(OC)ccc23)[C@H]1CO`, 1.04 ± 0.043.
The result for `Cc1ccccc1-c1cnc2c(c1)C(=O)N([C@@H](C)CO)C[C@H](C)[C@H](CN(C)Cc1ccccc1F)O2` reads 1.09 ± 0.045; that for `O=C(C[C@H]1C[C@@H]2c3cc(NC(=O)c4cccnc4)ccc3O[C@@H]2[C@H](CO)O1)NCc1cc(F)ccc1F`, 1.08 ± 0.02.
In the case of `CCS(=O)(=O)Nc1ccc2c(c1)C(=O)N(C)[C@H]1CC[C@H](CC(=O)N3CCN(C)CC3)O[C@H]1CO2` it was 1.02 ± 0.12.
`COC(=O)[C@H]1[C@H](CO)[C@H]2Cn3c(ccc(-c4cncnc4)c3=O)[C@H]2N1CCC(F)(F)F`: the viability index was determined as 1.08 ± 0.023.
In the case of `C[C@H]1CN([C@@H](C)CO)C(=O)c2ccccc2-c2ccccc2CO[C@H]1CN(C)C(=O)Nc1cccc(Cl)c1Cl` it was 0.9208 ± 0.0078; in that of `O=C(C[C@H]1CC[C@@H]2[C@H](COC[C@H](O)CN2S(=O)(=O)c2cccc(F)c2)O1)NCc1ccncn1`, 1.032 ± 0.0033; in that of `C/C=C/c1ccc([C@H]2[C@@H](C#N)N(C(=O)NC3CCCCC3)[C@H]2CO)cc1`, 1.13 ± 0.013.
With `O=C(C[C@H]1CC[C@H]2[C@@H](COC[C@@H](O)CN2C(=O)c2ccccc2F)O1)NCc1ccc(Cl)c(Cl)c1`, the viability index came out at 1.094 ± 0.0057.
The result for `N#C[C@H]1[C@@H](c2ccccc2/C=C/c2ccccc2)[C@@H](CO)N1C(=O)Nc1ccccc1` reads 0.987 ± 0.081; that for `CCCN(C)C[C@@H]1OCCCC[C@H](C)Oc2ccc(NC(=O)CCCN(C)C)cc2C(=O)N([C@H](C)CO)C[C@@H]1C`, 1.07 ± 0.22; that for `C[C@H]1CN([C@@H](C)CO)C(=O)c2cc(-c3ccncc3)cnc2O[C@@H]1CN(C)C(=O)CN1CCOCC1`, 1.063 ± 0.0024.
In the case of `C[C@@H]1CN([C@H](C)CO)C(=O)c2cc(N(C)C)ccc2O[C@@H]1CN(C)CC1CCCCC1` it was 1.0152 ± 0.00043.
In the case of `C/C=C/c1ccc([C@@H]2[C@H](CO)N3C(=O)CN(Cc4ccc(F)cc4)C[C@@H]23)cc1` it was 1.01 ± 0.035.
As to `O=C(C[C@H]1CC[C@H]2[C@@H](COC[C@H](O)CN2C(=O)Nc2cc(Cl)cc(Cl)c2)O1)N1CCOCC1`, the viability index is 0.9857 ± 0.0071.
The result for `CCC(=O)N1C[C@@]2(C1)CN([C@H](CO)c1c2c2ccc(OC)cc2n1C)C(=O)c1cnccn1` reads 1 ± 0.024.
In the case of `Cc1noc(C)c1S(=O)(=O)N(C)C[C@H]1OCc2cnnn2CCCC(=O)N([C@@H](C)CO)C[C@H]1C` it was 1.05 ± 0.08; in that of `Cc1noc(C)c1S(=O)(=O)N(C)C[C@@H]1OCc2cn(nn2)CCCC(=O)N([C@@H](C)CO)C[C@@H]1C`, 1.0256 ± 0.001.
In the case of `COc1ccccc1C#Cc1ccc2c(c1)[C@H]1[C@H](CCN1C(=O)c1ccncc1)[C@@H](CO)N2` it was 1.06 ± 0.042; in that of `COc1ccccc1-c1ccc2c(c1)[C@@H]1[C@@H](CCN1S(=O)(=O)c1ccc(C)cc1)[C@H](CO)N2`, 0.836 ± 0.028.
Consider `C[C@@H]1CCCCO[C@H](CN(C)Cc2ccncc2)[C@H](C)CN([C@H](C)CO)C(=O)c2cc(NS(=O)(=O)c3ccc(Cl)cc3)ccc2O1`, for which the viability index came to 0.97 ± 0.073.
In the case of `Cc1ccc(S(=O)(=O)Nc2cccc3c2O[C@@H](CN(C)C(=O)Nc2ccc(C(F)(F)F)cc2)[C@@H](C)CN([C@@H](C)CO)C3=O)cc1` it was 1.05 ± 0.033; in that of `O=C(N[C@@H]1CC[C@H](CC(=O)N2CCOCC2)O[C@H]1CO)c1cccc(F)c1`, 1.07 ± 0.062; in that of `COc1ccccc1C(=O)N1C[C@H]2[C@@H](c3ccccc31)[C@@H](CO)N2CC1CCCC1`, 1.051 ± 0.0014.
The result for `COCC(=O)N1C[C@]2(CN(Cc3ccc(Cl)cc3)C2)c2c([nH]c3cc(OC)ccc23)[C@@H]1CO` reads 0.979 ± 0.02; that for `Cn1cnc(CCNC(=O)[C@@H]2[C@@H](CO)[C@@H]3Cn4c(cccc4=O)[C@@H]3N2C(=O)Nc2ccccc2)c1`, 1.053 ± 0.0063; that for `C[C@@H]1CN([C@@H](C)CO)C(=O)c2cc(Br)cnc2O[C@@H]1CN(C)Cc1ccc(Oc2ccccc2)cc1`, 1.02 ± 0.039.
The compound `O=C(Cc1ccccn1)N1CC[C@@H]2[C@H](CO)Nc3ccc(-c4cccc(F)c4)cc3[C@@H]21` came in with a viability index of 1.04 ± 0.032.
The result for `COCC(=O)N1[C@H](C#N)[C@@H](c2ccc(C#CCC3CCCC3)cc2)[C@H]1CO` reads 1.06 ± 0.072; that for `C[C@H]1CN([C@@H](C)CO)C(=O)CCCn2cc(nn2)CO[C@@H]1CN(C)C(=O)Nc1cccc2ccccc12`, 0.9542 ± 0.0035; that for `CCCC#Cc1ccc([C@H]2[C@@H](CO)N(C(C)=O)[C@H]2CN(C)C(=O)C2CC2)cc1`, 1.02 ± 0.044.
Turning to `CCC(=O)N1[C@H](CO)[C@H](c2ccc(C3=CCCC3)cc2)[C@@H]1CNC1CCCCC1`, the viability index was 1.09 ± 0.02.
In the case of `COCC(=O)Nc1ccc2c(c1)OC[C@@H](C)N(C(=O)CN1CCOCC1)C[C@@H](C)[C@H](OC)CN(C)C2=O` it was 1.084 ± 0.0016; in that of `CN1C(=O)c2cc(NC(=O)c3cccc(F)c3)ccc2OC[C@H]2O[C@H](CC(=O)NCC3CCCCC3)CC[C@H]21`, 0.987 and 1.19; in that of `COc1ccc2c3c([nH]c2c1)[C@@H](CO)N(C[C@]31CN(C1)C(=O)c1ccccc1)S(C)(=O)=O`, 1.01 ± 0.069.
In turn, `COc1cccc(NC(=O)N2CC(=O)N3[C@H](C2)[C@H](c2ccc(C#CCC4CCCC4)cc2)[C@@H]3CO)c1` registered a viability index of 1.11 ± 0.027.
In the case of `C[C@@H]1CN([C@H](C)CO)C(=O)c2cc(-c3cccc(C(=O)N(C)C)c3)cnc2O[C@@H]1CN(C)C(=O)Cc1ccccn1` it was 0.952 ± 0.12; in that of `CN(C)C(=O)c1ccc(-c2ccc([C@H]3[C@@H]4CN(Cc5ccc6c(c5)OCO6)C[C@H]3N4)cc2)cc1`, 1.07 ± 0.09; in that of `COc1cccc(C#Cc2ccc([C@@H]3[C@@H](C#N)N(C(=O)c4ccccn4)[C@H]3CO)cc2)c1`, 1.04 ± 0.029.
In the case of `COc1ccc2c3c([C@@H](CO)N(C[C@]33CN(Cc4nccs4)C3)C(=O)Nc3cccc(F)c3)n(C)c2c1` it was 1.03 ± 0.062; in that of `O=C(C[C@H]1CC[C@H]2[C@@H](COC[C@@H](O)CN2Cc2cc(F)cc(F)c2)O1)Nc1nccs1`, 1.12 ± 0.055; in that of `COc1ccc(CN2C[C@@H](O)COC[C@H]3O[C@H](CC(=O)N(C)C)CC[C@@H]32)cc1`, 1.05 ± 0.051.
Compound `CN1C(=O)c2cc(NS(=O)(=O)c3ccccc3F)ccc2OC[C@@H]2O[C@@H](CC(=O)NC3Cc4ccccc4C3)CC[C@@H]21` returned a viability index of 1.109 ± 0.0019.
In the case of `Cc1ccc(S(=O)(=O)N[C@H]2C=C[C@@H](CC(=O)NCc3ccc(Cl)c(Cl)c3)O[C@@H]2CO)cc1` it was 0.946 ± 0.095.
In the case of `Cc1noc(C)c1NC(=O)N(C)C[C@@H]1Oc2ccc(NC(=O)CCCN(C)C)cc2C(=O)N([C@@H](C)CO)C[C@@H]1C` it was 0.955 ± 0.084; in that of `CO[C@@H]1CN(C)C(=O)c2cc(NC(=O)c3ccc(F)cc3)ccc2OC[C@@H](C)N(C(=O)CC2CC2)C[C@@H]1C`, 1.15 ± 0.064; in that of `CN1C(=O)c2cc(NC(=O)Nc3ccccc3F)ccc2OC[C@H]2O[C@H](CC(=O)NCCc3ccncc3)CC[C@@H]21`, 0.946 ± 0.048.
